The text below walks through data of PubChem BioAssay AID1508624 (National Center for Advancing Translational Sciences (NCATS), 2021).

Molecules are shown by their SMILES. About 120 (0.25%) of roughly 48,000 compounds were called active. Inconclusive results (about 4%) are left out. Calls come from the whole dose curve; as a rule, active = well fitted activation curve with a large enough effect; inconclusive = small, poorly fitted or top-dose-only effect, or another doubt; inactive = no such curve, though single readings can be large or run the other way. The list shows a part of the results.

The nature of this test: Primary qHTS for Identification of Small Molecule Activators of Huntingtin-Antisense Promoter Activity. Note: nearly all actives have a fitted effect of over 55% in size. Particulars: HEK293 HTT-AS promoter firefly luciferase reporter, 24 h; series mostly up to 57.5 µM; activity change, positive = activation: at the top concentration. The gist of the method: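 Firefly luciferase signal from promoter-reporter HEK293 cells was scaled between vehicle (0%) and zero RLU (-100%). Compounds were tested at final concentrations of up to 57.5 uM over 24 h at 37 degrees C. PTC124 at 50 uM final served as control inhibitor.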
(In general: Quantitative high-throughput screening tests each substance at several concentrations.)
For `Cc1ccn2c(Nc3ccc4c(c3)OCO4)c(-c3ccc(O)cc3)nc2c1`, the “activity change, positive = activation” value was inactive: 9.86%. As to `CCCOC(=O)C(C)n1nnc2sc(-c3ccccc3)cc2c1=O` (configuration not stated), the “activity change, positive = activation” value was inactive: 2.48%. Next, `CCCCN1CCCC1C(=O)Nc1c(C)cc(C)cc1C` (configuration not stated): inactive: -5.34%; `CCCN1CCN(c2ncnc3sc(C(=O)Nc4ccc(N(CC)CC)cc4C)c(C)c23)CC1`: inactive: -26.6%. Under `COc1cccc(CNS(=O)(=O)c2cc(Br)cc3c2N(C(C)=O)C(C)C3)c1` (configuration not stated) stands inactive: -10.2%. On to `O=C(CSCc1cnn(-c2ccccc2)c1-n1cccc1)NCc1ccccc1F`, for which the “activity change, positive = activation” value is inactive: -26.7%. Next, `COc1cccc(CC(=O)NCc2ccc3c(c2)CCN3C(C)=O)c1`: inactive: 19.3%; `CN(C)S(=O)(=O)Nc1ccc(-c2cn3ccsc3n2)cc1`: inactive: 29.3%. Under `CCc1ccccc1NC(=O)C1CCN(c2nn3c(=O)cc(C)nc3s2)CC1` stands inactive: -15%; under `Cc1cccc(Cc2cnc(NC(=O)c3ccc4c(c3)CC(c3ccccc3)OC4=O)s2)c1` (configuration not stated), inactive: -21.9%.

Consider `Cc1ccc2oc(C(=O)Nc3ccc(S(=O)(=O)N(C)Cc4ccccc4)cc3)cc(=O)c2c1`, for which the activity change, positive = activation is inactive: 5.83% [at 11.5 µM, percent change from vehicle, -100% = no light].

Take `COC(=O)c1ccccc1NC(=O)c1nc(S(=O)(=O)Cc2ccccc2F)ncc1Cl`: the “activity change, positive = activation” value was inactive: -18%. For the compound `O=C(Nc1ccccc1)Nc1ccc(-c2ccc(C(=O)[C@H]3CCC[C@H]3C(=O)O)cc2)cc1`, the “activity change, positive = activation” value was inactive: 11.8%.

On to `C[C@]12CC[C@@H]3c4ccc(O)cc4CC[C@H]3[C@@H]1C[C@@H](O)[C@@H]2O`, for which the “activity change, positive = activation” value is inactive: -1.76%. Regarding `CCc1nnc(NC(=O)c2nc(S(C)(=O)=O)ncc2Cl)s1`, the “activity change, positive = activation” value is inactive: -84%. As for `O=C(CSc1nc2c([nH]c3ccccc32)c(=O)n1-c1cccc(Cl)c1)N1CCc2ccccc21`, the “activity change, positive = activation” value was inactive: -8.5%.

Regarding `COc1cccc(Cc2nc3ccccc3nc2SCC(=O)N2CCCCC2C)c1` (configuration not stated), the “activity change, positive = activation” value is inactive: -38.5%. On to `Cc1ccc2nc(NCc3ccccc3Cl)c3nnnn3c2c1`, for which the “activity change, positive = activation” value is inactive: -10.1%.

Regarding `COc1cccc(C(=O)CN2CCN(S(=O)(=O)c3ccc(Cl)cc3)CC2)c1`, the “activity change, positive = activation” value was inactive: -4.3%.

On to `COc1cc2ccccc2cc1C(=O)Nc1ccc2oc(-c3cc(Br)ccc3Cl)nc2c1`, for which the “activity change, positive = activation” value is inactive: -5.18%. As to `O=C(CN1C(=O)CSc2ccc(S(=O)(=O)N3CCCCC3)cc21)NCc1ccc(F)cc1Cl`, the “activity change, positive = activation” value is inactive: -21.9%. Consider `O=C(NCc1ccco1)c1ccc2c(c1)N(Cc1ccc(F)cc1)C(=O)c1ccccc1S2=O` (configuration not stated), for which the “activity change, positive = activation” value was inactive: -39.7%. Next, `COc1cc(NC(=O)CCc2c(C)n(C)c3cc(-c4ccccc4C)nn3c2=O)cc(OC)c1OC`: inactive: -5.03%; `CCOc1ccccc1NC(=O)c1sc2nc3c(cc2c1N)CN(Cc1ccccc1)CC3`: inactive: -15.2%. In the case of `CC(C)c1ccc(C2=CC(c3cccc(Cl)c3)n3ncnc3N2)cc1` (configuration not stated), the “activity change, positive = activation” value was inactive: -20.4%.

With `Cc1ccc(NC(=O)CCS(=O)(=O)c2cccc3nonc23)c(C)c1`, the “activity change, positive = activation” value was inactive: -16.7%. Under `CCOc1ccc(NC(=O)Cn2c(CCC(=O)O)ccc2-c2ccc(Cl)cc2)cc1` stands inactive: -8.46%. Under `CCCN1C(C(=O)c2ccccc2)=C(OC(=O)c2ccc(F)cc2)c2ccccc2S1(=O)=O` stands inactive: -29.7%; under `Cc1ccc(C)c(Cn2c3ccccc3c3cnn(CC(=O)N4CCCCC4)c(=O)c32)c1`, inactive: 6.67%; under `O=C(OCCN1CCOCC1)c1cccnc1Nc1cccc(C(F)(F)F)c1`, inactive: -15.3%. Take `COc1ccc(Cl)cc1NC(=O)c1cc(S(=O)(=O)N2CCc3ccccc32)cn1C`: the “activity change, positive = activation” value is inactive: -17.6%.

As for `Cc1cccc(-n2c(=O)c3ccccc3n(Cc3ccccc3C#N)c2=O)c1`, the “activity change, positive = activation” value is inactive: -17.1%. Under `COc1cc2c(C(=O)N3CCN(c4cccc(C)c4)C(C)C3)cn(CC(C)C)c(=O)c2cc1OC` (configuration not stated) stands inactive: -19.3%. With `Cc1nn(CCC(=O)NC(C)C)c(=O)c2nn(-c3ccccc3)c(C)c12`, the “activity change, positive = activation” value is inactive: -0.967%.

As to `Cc1cccc(-c2noc(-c3ccc(N4CCCC4)c([N+](=O)[O-])c3)n2)c1`, the “activity change, positive = activation” value was inactive: -67.9%. Under `COc1ccc(NC(=O)C2CCN(S(=O)(=O)c3c(C)noc3/C=C/c3ccco3)CC2)cc1` stands inactive: -22.8%. With `CCCCC(=O)O[C@]1(C(=O)CO)CC[C@H]2[C@@H]3CCC4=CC(=O)CC[C@]4(C)[C@H]3[C@@H](O)C[C@@]21C`, the “activity change, positive = activation” value is inactive: -15.2%. As for `CCN(C(=O)CN(C)S(=O)(=O)c1ccc2c(c1)n(C)c(=O)c(=O)n2C)c1cccc(C)c1`, the “activity change, positive = activation” value is inactive: -12.4%. With `CN(C)c1ccc(C(CNS(=O)(=O)c2cc(F)ccc2F)N2CCOCC2)cc1` (configuration not stated), the “activity change, positive = activation” value is inactive: -7.53%. Next, `Cc1cc(C)c(Cn2c(=O)n(CCCCCC(=O)NCc3ccc4c(c3)OCO4)c(=O)c3sccc32)c(C)c1`: inactive: -11.2%; `O=C(CSCc1ccc(F)cc1)N1CCN(c2ccccc2)CC1`: inactive: 20%; `COc1cccc(NC(=O)Cn2c(=O)n(-c3cccc(OC)c3)c(=O)c3c4c(sc32)CCCC4)c1`: inactive: 2.19%. Under `CCc1cccc2c3c([nH]c12)C(CC)(CC(=O)O)OCC3` (configuration not stated) stands “inactive”; under `CCc1ccc(C2C(C(=O)Nc3ccccc3)=C(C)Nc3nc(SCC(=O)c4ccc(C)cc4)nn32)cc1` (configuration not stated), inactive: 3.09%. Next, `CC(=O)c1ccc(NC(=O)Cn2c3ncccc3c(=O)n2-c2ccc(C)cc2)cc1`: inactive: -25.3%; `COc1ccc(NC(=O)c2cnc(SCC(=O)Nc3nc4ccc(C)cc4s3)n(C)c2=O)cc1`: inactive: 24.7%; `Cc1ccc(-c2noc(CSc3nnc(-c4ccc(Cl)cc4)n3C)n2)cc1`: inactive: -16%.
